# In the supplement of paper PMC8728848:
# The list shows a part of the results.
# B1: FBG1 (Homo sapiens), Q9UK22 (protein)
# chain: MDGDGDPESVGQPEEASPEEQPEEASAEEERPEDQQEEEAAAAAAYLDELPEPLLLRVLAALPAAELVQACRLVCLRWKELVDGAPLWLLKCQQEGLVPEGGVEEERDHWQQFYFLSKRRRNLLRNPCGEEDLEGWCDVEHGGDGWRVEELPGDSGVEFTHDESVKKYFASSFEWCRKAQVIDLQAEGYWEELLDTTQPAIVVKDWYSGRSDAGCLYELTVKLLSEHENVLAEFSSGQVAVPQDSDGGGWMEISHTFTDYGPGVRFVRFEHGGQDSVYWKGWFGARVTNSSVWVEP
# Tests used:
# Test in all cases: glycan array binding signal (z-score within array); higher = stronger binding
# Conditions in all cases: glycan notation: IUPAC condensed, linker removed
# Gal(a1-6)Glc = molecular target: Gal(a1-6)Glc
# Outline: (§1)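 Glycan array binding is given as a within-array Z-score, which can be read as non-binding when negative. The arrays, 3228 of them, came from the Consortium for Functional Glycomics database and were retained only where the protein sequence was available. Z-scores were averaged across arrays of the same protein sequence at different concentrations or buffers and across linkers.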
# Gal(b1-2)Gal = molecular target: Gal(b1-2)Gal
# Outline: as §1
# Gal(b1-3)Gal = molecular target: Gal(b1-3)Gal
# Outline: as §1
# Gal(b1-3)GalNAc = molecular target: Gal(b1-3)GalNAc
# Outline: as §1
# [1] = molecular target: Gal(b1-3)GalNAc(b1-4)Gal(b1-4)Glc
# Outline: as §1
# [2] = molecular target: Gal(b1-3)GalNAc(b1-4)[Neu5Ac(a2-3)]Gal(b1-4)Glc
# Outline: as §1
# Gal(b1-3)GlcNAc = molecular target: Gal(b1-3)GlcNAc
# Outline: as §1
# [3] = molecular target: Gal(b1-3)GlcNAc(b1-3)Gal(b1-4)Glc
# Outline: as §1
# [4] = molecular target: Gal(b1-3)[Fuc(a1-4)]GlcNAc
# Outline: as §1
# [5] = molecular target: Gal(b1-3)[GlcNAc(b1-6)]GalNAc
# Outline: as §1
# [6] = molecular target: Gal(b1-3)[Neu5Ac(a2-6)]GalNAc
# Outline: as §1
# [7] = molecular target: Gal(b1-3)[Neu5Ac(a2-6)]GlcNAc(b1-4)Gal(b1-4)Glc
# Outline: as §1
# [8] = molecular target: Gal(b1-3)[Neu5Ac(b2-6)]GalNAc
# Outline: as §1
# [9] = molecular target: Gal(b1-4)GalNAc(a1-3)[Fuc(a1-2)]Gal(b1-4)GlcNAc
# Outline: as §1
# Gal(b1-4)Glc = molecular target: Gal(b1-4)Glc
# Outline: as §1
# Gal(b1-4)Glc6S = molecular target: Gal(b1-4)Glc6S
# Outline: as §1
# Gal(b1-4)GlcNAc = molecular target: Gal(b1-4)GlcNAc
# Outline: as §1
# [10] = molecular target: Gal(b1-4)GlcNAc(b1-3)Gal(b1-4)Glc
# Outline: as §1
# [11] = molecular target: Gal(b1-4)GlcNAc(b1-3)Gal(b1-4)GlcNAc
# Outline: as §1
# [12] = molecular target: Gal(b1-4)GlcNAc(b1-3)Gal(b1-4)GlcNAc(b1-3)Gal(b1-4)GlcNAc
# Outline: as §1
# [13] = molecular target: Gal(b1-4)GlcNAc(b1-3)Gal(b1-4)[Fuc(a1-3)]GlcNAc(b1-3)Gal(b1-4)[Fuc(a1-3)]GlcNAc
# Outline: as §1
# [14] = molecular target: Gal(b1-4)GlcNAc(b1-3)GalNAc
# Outline: as §1
# [15] = molecular target: Gal(b1-4)GlcNAc(b1-3)[Gal(b1-4)GlcNAc(b1-6)]GalNAc
# Outline: as §1
# [16] = molecular target: Gal(b1-4)GlcNAc(b1-6)GalNAc
# Outline: as §1
# [17] = molecular target: Gal(b1-4)GlcNAc(b1-6)[Gal(b1-3)]GalNAc
# Outline: as §1
# Gal3S(b1-3)GalNAc = molecular target: Gal3S(b1-3)GalNAc
# Outline: as §1
# Gal3S(b1-3)GlcNAc = molecular target: Gal3S(b1-3)GlcNAc
# Outline: as §1
# [18] = molecular target: Gal3S(b1-3)[Fuc(a1-4)]GlcNAc
# Outline: as §1
# Gal3S(b1-4)Glc = molecular target: Gal3S(b1-4)Glc
# Outline: as §1
# Gal3S(b1-4)Glc6S = molecular target: Gal3S(b1-4)Glc6S
# Outline: as §1
# Gal3S(b1-4)GlcNAc = molecular target: Gal3S(b1-4)GlcNAc
# Outline: as §1
# Gal4S(b1-4)GlcNAc = molecular target: Gal4S(b1-4)GlcNAc
# Outline: as §1
# Gal6S(b1-4)Glc = molecular target: Gal6S(b1-4)Glc
# Outline: as §1
# Gal6S(b1-4)Glc6S = molecular target: Gal6S(b1-4)Glc6S
# Outline: as §1
# GalNAc(a1-3)Gal = molecular target: GalNAc(a1-3)Gal
# Outline: as §1
# GalNAc(a1-3)GalNAc = molecular target: GalNAc(a1-3)GalNAc
# Outline: as §1
binder,measurement,setting,value
B1,glycan array binding signal (z-score),Gal(a1-6)Glc,-0.185
same,glycan array binding signal (z-score),Gal(b1-2)Gal,-0.204
same,glycan array binding signal (z-score),Gal(b1-3)Gal,0.137
same,glycan array binding signal (z-score),Gal(b1-3)GalNAc,-0.197
same,glycan array binding signal (z-score),[1],-0.232
same,glycan array binding signal (z-score),[2],-0.25
same,glycan array binding signal (z-score),Gal(b1-3)GlcNAc,-0.191
same,glycan array binding signal (z-score),[3],-0.247
same,glycan array binding signal (z-score),[4],-0.215
same,glycan array binding signal (z-score),[5],0.004
same,glycan array binding signal (z-score),[6],-0.199
same,glycan array binding signal (z-score),[7],-0.202
same,glycan array binding signal (z-score),[8],-0.221
same,glycan array binding signal (z-score),[9],-0.202
same,glycan array binding signal (z-score),Gal(b1-4)Glc,-0.196
same,glycan array binding signal (z-score),Gal(b1-4)Glc6S,-0.148
same,glycan array binding signal (z-score),Gal(b1-4)GlcNAc,-0.199
same,glycan array binding signal (z-score),[10],-0.219
same,glycan array binding signal (z-score),[11],-0.193
same,glycan array binding signal (z-score),[12],-0.221
same,glycan array binding signal (z-score),[13],-0.221
same,glycan array binding signal (z-score),[14],5.13
same,glycan array binding signal (z-score),[15],-0.163
same,glycan array binding signal (z-score),[16],-0.271
same,glycan array binding signal (z-score),[17],-0.223
same,glycan array binding signal (z-score),Gal3S(b1-3)GalNAc,-0.195
same,glycan array binding signal (z-score),Gal3S(b1-3)GlcNAc,-0.166
same,glycan array binding signal (z-score),[18],-0.207
same,glycan array binding signal (z-score),Gal3S(b1-4)Glc,-0.236
same,glycan array binding signal (z-score),Gal3S(b1-4)Glc6S,-0.196
same,glycan array binding signal (z-score),Gal3S(b1-4)GlcNAc,-0.217
same,glycan array binding signal (z-score),Gal4S(b1-4)GlcNAc,0.19
same,glycan array binding signal (z-score),Gal6S(b1-4)Glc,-0.191
same,glycan array binding signal (z-score),Gal6S(b1-4)Glc6S,-0.115
same,glycan array binding signal (z-score),GalNAc(a1-3)Gal,-0.21
same,glycan array binding signal (z-score),GalNAc(a1-3)GalNAc,-0.264
